Laboratory results from publication PMC12136788.
The other results are listed elsewhere or left out.

B1: chr8:18872320:18872424:-|CDS|ENSG00000156011|unk|total|mutant (ssRNA)
RNA: GGGAGUUCUACAGUCCGACGAUCGCCAGAAUCAUUUCCGGAACAUUACAGGCUACAAAGGUACUGGACCAAGAUGCUGUUUCCCGUUUUUCAGUUCAGCAGGUGGAAAAAGAGCUGGACACUGCCAGUCGUAAAACACAGAGACAACAGAGGAUUGAGCAUCA
B2: ENSG00000163636:stop:overlap|stop_codon|ENSG00000163636|stop_codon|NA|stop_codon (ssRNA)
RNA: GGGAGUUCUACAGUCCGACGAUCUCUUCCAAUCAUUAGGGAACUGUCCAGGUUUAUUGCUGCCGGGAGACUACACUGCAAAAUAGAUAAAGUGAAUGAAAUAGUAGAAACCAACAGACCUGAUAGCAAGAACUGGCAGUACCACAACAGAGGAUUGAGCAUCA
B3: chr1:228098150:228098251:+|3pUTR|ENSG00000143761|msi1_unk|total|mutant (ssRNA)
RNA: GGGAGUUCUACAGUCCGACGAUCGCACCGUGCUGUAAAUGUGGCAGACGCAGCCUGCGGCCAGGCUUUUUAUUUAAUGUAAACCGUUUUUGUUUCCAAUGAGGCAGUUUCUGGUACUCCUAUGCAAUAUUACUCAGCUUUUUUCAACAGAGGAUUGAGCAUCA
B4: chr5:141515046:141515147:-|3pUTR|ENSG00000131504|msi1_unk|FALSE|overlapping (ssRNA)
RNA: GGGAGUUCUACAGUCCGACGAUCAAAAAGAGAGAGAGAGAGAGGUGUGAGGGACAAAAUGCAAACCUAUUUCCCUUGCCUCAUAGGCUUCUGGGAUGUCAUCACCUCCAGUUUGUUGGUUUUGUUUCCAACUGUUAAUAAAGCCAACAGAGGAUUGAGCAUCA
B5: chr20:49372985:49374992:-|CDS|ENSG00000158445|control|control|control (ssRNA)
RNA: GGGAGUUCUACAGUCCGACGAUCCAUCUACACCACAGCAAGUGCUAAGACACCCCCCCGGUCUCCUGAGAAACACACAGCAAUAGCGUUCAACUUUGAGGCGGGUGUCCACCAGUACAUUGACGCAGACACAGAUGAUGAGGGCAACAGAGGAUUGAGCAUCA
B6: chr10:121957106:121957207:-|3pUTR|ENSG00000107672|msi1|total|mutant (ssRNA)
RNA: GGGAGUUCUACAGUCCGACGAUCUGUAUCGUACAUAUUGUAUGAUUCAACAUUUUUAAAGGCAGAUUGUUUUCCGUAAAAUGCCGCUUUUGACCGUUAAUAAAUUUGUCAUGGUUGUCUUUGAUUAAAGGAAACUCACCGCCACAACAGAGGAUUGAGCAUCA
B7: chr2:226864888:226864989:+|CDS|ENSG00000144468|unk|FALSE|unique (ssRNA)
RNA: GGGAGUUCUACAGUCCGACGAUCUGCUGAUGAUUGGCAUUUGUAUUUCAAUAUGGCAUCCAUGCUCUGGAAAGGAAUAAAUCUAGAAAGAAGACUGGGAAGUAGAUGGUUUGCCUAUGUUAUCACCGCAUUUUCUGUACUUACCAACAGAGGAUUGAGCAUCA
B8: chr14:60975662:60975785:-|CDS|ENSG00000126814|unk|FALSE|unique (ssRNA)
RNA: GGGAGUUCUACAGUCCGACGAUCGAAAGAAAACCCUCUGUGCACGUUGUCAUGAACUUGCCAGCAAAAGCUAUAGAGUUUCUUAGUGCUUUCAAGUGGCUUUUAGAUGGGCAGCCAUGCAGCAGUGAGUUCCUUCCCAUAGUGCAACAGAGGAUUGAGCAUCA
B9: chr8:122973292:122973393:+|3pUTR|ENSG00000178764|msi1|FALSE|unique (ssRNA)
RNA: GGGAGUUCUACAGUCCGACGAUCAGAGAUGGUCUCUCCCCAGCCAUGGGCCACCCUUGCCAGUGACUCCAAGUGGAACUACUUAGCUCGCGUGUGCCUGGAGGGUGCGGGAAGUCCAGCGACUCUCAGACGCACCUCCCAGAGCAACAGAGGAUUGAGCAUCA
B10: ENSG00000070961:be:win_6301|3pUTR|ENSG00000070961|bound_else_gene|NA|bound_elsewhere_windowed (ssRNA)
RNA: GGGAGUUCUACAGUCCGACGAUCUGAGUUACUCCUUGUCAUCUUACAAAUAUGUGAUAUGGUAAUUUUCAUAACAGAUGUCAGUUUUGAACCAAGAAUUGGUGAUUUGUUUAUAAGAAAAAAACUGGCUUCAUUUCUGUGAAACAACAGAGGAUUGAGCAUCA
B11: chr22:49888080:49888186:+|3pUTR|ENSG00000100426|unk|FALSE|unique (ssRNA)
RNA: GGGAGUUCUACAGUCCGACGAUCUGGCUUAUUAACAGGGAAGAAGCUUGUUAUAUUCCAGUUGUAAGAAUAGCCUUAGUGUUUAGAUUUUUUUAUGAUAGGGAAGAUGCGGCCAUCACUGGGAUAUUUUCAAAUCCCAAGGACCAACAGAGGAUUGAGCAUCA
B12: chr5:14398947:14399058:+|CDS|ENSG00000038382|unk|FALSE|unique (ssRNA)
RNA: GGGAGUUCUACAGUCCGACGAUCCCCAAAAACCUUAAUUCGAAAGGGUCGAGAACGGCAUCUCUUCCUUUUUGAAAUGUCCUUAGUAUUUAGUAAAGAAGUGAAAGAUUCCAGUGGGAGAAGCAAGUACCUUUAUAAAAGCAACAACAGAGGAUUGAGCAUCA
B13: chr10:87746157:87746259:+|3pUTR|ENSG00000198682|unk|total|mutant (ssRNA)
RNA: GGGAGUUCUACAGUCCGACGAUCAACUGAAGACCAAAUCUCCGCAGGUAAAAGCAAUAUUCUUAUACAUUUCAUAAUAAAAUCCGCUCUAUGUAUUUUCUACUGCACCUGAGCAGGCAGGUCCCAGAUUUCUUAAGGCUUUGUCAACAGAGGAUUGAGCAUCA
B14: chr11:62888716:62888817:+|3pUTR|ENSG00000168003|unk|total|mutant (ssRNA)
RNA: GGGAGUUCUACAGUCCGACGAUCUUUUCUCUUUUUUAAAAACAAACAAACAAACUGUUGCAGAUUAUGAGUGAACCCCCAAACCGGGUGUUUUCUGCCUUCAAAUAAAAGUCACCCCUGCAUGGUGAAGUCUUCCCUCUGCUUCAACAGAGGAUUGAGCAUCA

What follows are binders tested against MSI1 full-length (mouse, UniProt Q61474 1-362) (assay: nsRBNS (natural sequence RNA bind-n-seq); RBNS binding buffer (assumed for nsRBNS): 25 mM Tris pH 7.5, 150 mM KCl, 3 mM MgCl2, 0.01% Triton X-100, 500 ug/ml BSA, 20 U/ml SUPERase-In, 4 C; UNK is unkempt and MSI1 is Musashi-1; names of the RNAs are library labels; protein concentration not given here; high values mean tight binding).
UniProt Q61474, sequence (Q61474 whole entry): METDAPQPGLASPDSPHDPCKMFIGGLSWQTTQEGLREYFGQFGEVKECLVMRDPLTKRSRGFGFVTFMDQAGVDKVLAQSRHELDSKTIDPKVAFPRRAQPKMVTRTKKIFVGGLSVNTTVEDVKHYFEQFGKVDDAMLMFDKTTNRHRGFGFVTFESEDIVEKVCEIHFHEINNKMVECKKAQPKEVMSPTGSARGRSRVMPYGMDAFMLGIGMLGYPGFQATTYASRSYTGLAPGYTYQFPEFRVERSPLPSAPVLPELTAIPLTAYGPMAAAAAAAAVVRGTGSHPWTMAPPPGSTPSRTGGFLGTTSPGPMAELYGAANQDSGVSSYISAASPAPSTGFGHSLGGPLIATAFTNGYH
In the case of B1, the binding signal is reported as 0.457 enrichment R.
Binder B2 has a binding signal of 1.03 enrichment R.
For B3, the binding signal was 0.764 enrichment R.
In the case of B4, the binding signal is reported as 0.519 enrichment R.
In the case of B5, the binding signal is reported as 0.624 enrichment R.
B6 gave a binding signal of 0.237 enrichment R.
B7 was tested, and the binding signal was 0.265 enrichment R.
B8 showed a binding signal of 1.21 enrichment R.
For B9, the binding signal was 0.488 enrichment R.
With B10 the binding signal was 0.327 enrichment R.
With B11 the binding signal was 11.3 enrichment R.
B12 gave a binding signal of 4.87 enrichment R.
B13 showed a binding signal of 3.07 enrichment R.
B14 showed a binding signal of 0.484 enrichment R.
